Test results published in patent US20100260668A1 (published 2010).

B1: DVD469 (bispecific antibody, human IgG1, kappa)
heavy: EVQLVESGGGLVQPGGSLRLSCAASGFTFTDNWISWVRQAPGKGLEWVGYISPNSGFTYYADSVKGRFTISADTSKNTAYLQMNSLRAEDTAVYYCARDNFGGYFDYWGQGTLVTVSSASTKGPSVFPLAPEVQLVESGGGLVQPGGSLRLSCAASGYTFTNYGMNWVRQAPGKGLEWVGWINTYTGEPTYAADFKRRFTFSLDTSKSTAYLQMNSLRAEDTAVYYCAKYPHYYGSSHWYFDVWGQGTLVTVSS[omitted - human IgG1 constant region]
light: DIQMTQSPSSLSASVGDRVTITCRASQDVSTAVAWYQQKPGKAPKLLIYSASFLYSGVPSRFSGSGSGTDFTLTISSLQPEDFATTYYCQQSYTGTVTFGQGTKVEIKRTVAAPSVFIFPPDIQMTQSPSSLSASVGDRVTITCSASQDISNYLNWYQQKPGKAPKVLIYFTSSLHSGVPSRFSGSGSGTDFTLTISSLQPEDFATYYCQQYSTVPWTFGQGTKVEIKRTVAAPSVFIFPPSDEQLKSGTASVVCLLNNFYPREAKVQWKVDNALQSGNSQESVTEQDSKDSTYSLSSTLTLSKADYEKHKVYACEVTHQGLSSPVTKSFNRGEC
notes: DVD-Ig; HC long, LC long linker; also called DVD469H; DVD469L
B2: DVD475 (bispecific antibody, human IgG1, kappa)
heavy: B1 heavy
light: DIQMTQSPSSLSASVGDRVTITCRASQDVSTAVAWYQQKPGKAPKLLIYSASFLYSGVPSRFSGSGSGTDFTLTISSLQPEDFATTYYCQQSYTGTVTFGQGTKVEIKRTVAAPDIQMTQSPSSLSASVGDRVTITCSASQDISNYLNWYQQKPGKAPKVLIYFTSSLHSGVPSRFSGSGSGTDFTLTISSLQPEDFATYYCQQYSTVPWTFGQGTKVEIKRTVAAPSVFIFPPSDEQLKSGTASVVCLLNNFYPREAKVQWKVDNALQSGNSQESVTEQDSKDSTYSLSSTLTLSKADYEKHKVYACEVTHQGLSSPVTKSFNRGEC
notes: DVD-Ig; HC long, LC short linker; also called DVD475H; DVD475L
B3: DVD481 (bispecific antibody, human IgG1, kappa)
heavy: EVQLVESGGGLVQPGGSLRLSCAASGFTFTDNWISWVRQAPGKGLEWVGYISPNSGFTYYADSVKGRFTISADTSKNTAYLQMNSLRAEDTAVYYCARDNFGGYFDYWGQGTLVTVSSASTKGPEVQLVESGGGLVQPGGSLRLSCAASGYTFTNYGMNWVRQAPGKGLEWVGWINTYTGEPTYAADFKRRFTFSLDTSKSTAYLQMNSLRAEDTAVYYCAKYPHYYGSSHWYFDVWGQGTLVTVSS[omitted - human IgG1 constant region]
light: B1 light
notes: DVD-Ig; HC short, LC long linker; also called DVD481H; DVD481L
B4: DVD517 (bispecific antibody, human IgG1, kappa, lambda)
heavy: EVQLQQSGPELEKPGASVKISCKASGYSFTGYNMNWVKQSNGKSLEWIGNIDPYFGGTNYNQKFKGKATLTVDKSSSTAYMQLKSLTSEDSAVYYCARNYDYDGGCFDYWGQGTTLTVSSASTKGPSVFPLAPEVQLVESGGGLVQPGGSLRLSCAASGYTFTNYGMNWVRQAPGKGLEWVGWINTYTGEPTYAADFKRRFTFSLDTSKSTAYLQMNSLRAEDTAVYYCAKYPHYYGSSHWYFDVWGQGTLVTVSS[omitted - human IgG1 constant region]
light: QAVVTQESALTTSPGETVTLTCRSSTGAVTTSNYANWVQEKPDHLFTGLIGGTNNRAPGVPARFSGSLIGDKAALTITGAQTEDEAIYFCALWYSNHWVFGGGTKLTVLGQPKAAPSVTLFPPDIQMTQSPSSLSASVGDRVTITCSASQDISNYLNWYQQKPGKAPKVLIYFTSSLHSGVPSRFSGSGSGTDFTLTISSLQPEDFATYYCQQYSTVPWTFGQGTKVEIKRTVAAPSVFIFPPSDEQLKSGTASVVCLLNNFYPREAKVQWKVDNALQSGNSQESVTEQDSKDSTYSLSSTLTLSKADYEKHKVYACEVTHQGLSSPVTKSFNRGEC
notes: DVD-Ig; HC long, LC long linker; also called DVD517H; DVD517L
B5: DVD523 (bispecific antibody, human IgG1, kappa)
heavy: B4 heavy
light: QAVVTQESALTTSPGETVTLTCRSSTGAVTTSNYANWVQEKPDHLFTGLIGGTNNRAPGVPARFSGSLIGDKAALTITGAQTEDEAIYFCALWYSNHWVFGGGTKLTVLGQPKAAPDIQMTQSPSSLSASVGDRVTITCSASQDISNYLNWYQQKPGKAPKVLIYFTSSLHSGVPSRFSGSGSGTDFTLTISSLQPEDFATYYCQQYSTVPWTFGQGTKVEIKRTVAAPSVFIFPPSDEQLKSGTASVVCLLNNFYPREAKVQWKVDNALQSGNSQESVTEQDSKDSTYSLSSTLTLSKADYEKHKVYACEVTHQGLSSPVTKSFNRGEC
notes: DVD-Ig; HC long, LC short linker; also called DVD523H; DVD523L
B6: DVD529 (bispecific antibody, human IgG1, kappa, lambda)
heavy: EVQLQQSGPELEKPGASVKISCKASGYSFTGYNMNWVKQSNGKSLEWIGNIDPYFGGTNYNQKFKGKATLTVDKSSSTAYMQLKSLTSEDSAVYYCARNYDYDGGCFDYWGQGTTLTVSSASTKGPEVQLVESGGGLVQPGGSLRLSCAASGYTFTNYGMNWVRQAPGKGLEWVGWINTYTGEPTYAADFKRRFTFSLDTSKSTAYLQMNSLRAEDTAVYYCAKYPHYYGSSHWYFDVWGQGTLVTVSS[omitted - human IgG1 constant region]
light: B4 light
notes: DVD-Ig; HC short, LC long linker; also called DVD529H; DVD529L
B7: DVD493 (bispecific antibody, human IgG1, kappa)
heavy: EVQLQQSGPELVKPGASVKMSCKASGYTFTSYVINWVKQKPGQGLEWIGLINPYNDGTKYNEKFKVKATLTSDKSSSTAYMELSSLTSEDSAVYYCASYYYGSRYYFDYWGQGTTLTVSSASTKGPSVFPLAPEVQLVESGGGLVQPGGSLRLSCAASGYTFTNYGMNWVRQAPGKGLEWVGWINTYTGEPTYAADFKRRFTFSLDTSKSTAYLQMNSLRAEDTAVYYCAKYPHYYGSSHWYFDVWGQGTLVTVSS[omitted - human IgG1 constant region]
light: DIQMTQSSSYLSVSLGGRVTITCKASDHINNWLAWYQQKPGNAPRLLISGATSLETGVPSRFSGSGSGKDYTLSITSLQTEDVATYYCQQYWSIPLTFGAGTKLELKRTVAAPSVFIFPPDIQMTQSPSSLSASVGDRVTITCSASQDISNYLNWYQQKPGKAPKVLIYFTSSLHSGVPSRFSGSGSGTDFTLTISSLQPEDFATYYCQQYSTVPWTFGQGTKVEIKRTVAAPSVFIFPPSDEQLKSGTASVVCLLNNFYPREAKVQWKVDNALQSGNSQESVTEQDSKDSTYSLSSTLTLSKADYEKHKVYACEVTHQGLSSPVTKSFNRGEC
notes: DVD-Ig; HC long, LC long linker; also called DVD493H; DVD493L
B8: DVD499 (bispecific antibody, human IgG1, kappa)
heavy: B7 heavy
light: DIQMTQSSSYLSVSLGGRVTITCKASDHINNWLAWYQQKPGNAPRLLISGATSLETGVPSRFSGSGSGKDYTLSITSLQTEDVATYYCQQYWSIPLTFGAGTKLELKRTVAAPDIQMTQSPSSLSASVGDRVTITCSASQDISNYLNWYQQKPGKAPKVLIYFTSSLHSGVPSRFSGSGSGTDFTLTISSLQPEDFATYYCQQYSTVPWTFGQGTKVEIKRTVAAPSVFIFPPSDEQLKSGTASVVCLLNNFYPREAKVQWKVDNALQSGNSQESVTEQDSKDSTYSLSSTLTLSKADYEKHKVYACEVTHQGLSSPVTKSFNRGEC
notes: DVD-Ig; HC long, LC short linker; also called DVD499H; DVD499L
B9: DVD505 (bispecific antibody, human IgG1, kappa)
heavy: EVQLQQSGPELVKPGASVKMSCKASGYTFTSYVINWVKQKPGQGLEWIGLINPYNDGTKYNEKFKVKATLTSDKSSSTAYMELSSLTSEDSAVYYCASYYYGSRYYFDYWGQGTTLTVSSASTKGPEVQLVESGGGLVQPGGSLRLSCAASGYTFTNYGMNWVRQAPGKGLEWVGWINTYTGEPTYAADFKRRFTFSLDTSKSTAYLQMNSLRAEDTAVYYCAKYPHYYGSSHWYFDVWGQGTLVTVSS[omitted - human IgG1 constant region]
light: B7 light
notes: DVD-Ig; HC short, LC long linker; also called DVD505H; DVD505L

Legend:
[1] = molecular target: T1, DLL4 ECD/His tag (R&D 1506-D4-050) (UniProt Q9NR61 fragment); experiment: direct bind ELISA, DLL4 on plate; DLL4 VD N-term.; HC Long, LC Long
T1 construct: extracellular domain; Bought antigen coated on the ELISA plate; not shown: His tag

[2] = molecular target: T1, DLL4 ECD/His tag (R&D 1506-D4-050); experiment: direct bind ELISA, DLL4 on plate; DLL4 VD N-term.; HC Long, LC Short
[3] = molecular target: T1, DLL4 ECD/His tag (R&D 1506-D4-050); experiment: direct bind ELISA, DLL4 on plate; DLL4 VD N-term.; HC Short, LC Long

| Binder | EC50 [1] [nM] | EC50 [2] [nM] | EC50 [3] [nM] |
| --- | --- | --- | --- |
| B1 | 2.78 |  |  |
| B2 |  | 0.23 |  |
| B3 |  |  | 3.3 |
| B4 | 0.1 |  |  |
| B5 |  | 0.09 |  |
| B6 |  |  | 0.1 |
| B7 | 0.06 |  |  |
| B8 |  | 0.09 |  |
| B9 |  |  | 0.09 |
